Assay results from PubChem BioAssay AID1159614 (National Center for Advancing Translational Sciences (NCATS), 2016).
In all, about 45,000 compounds went through this assay and about 65 (0.1%) were called active. Calls follow the shape of the dose curve; as a rule, active = well fitted activation curve with a large enough effect; inconclusive = small, poorly fitted or top-dose-only effect; inactive = no such curve, though single readings can be large or run the other way. This is one part of the list.

target: Galactocerebrosidase (Homo sapiens) (UniProt P54803); assay: A Novel Cell-Based Assay to Identify Small Molecules for B -Galactocerebrosidase; conditions: 145M-Twi-hGALC-G270D cells (Twitcher mouse brain line with human GALC G270D), HMU-beta-Gal fluorescence, 48 h; series mostly up to 57.5 µM; activation: at the top concentration; also: 0% is about no effect; nearly all actives have a fitted effect of over 65% in size
UniProt P54803, sequence (P54803 whole entry, looked up): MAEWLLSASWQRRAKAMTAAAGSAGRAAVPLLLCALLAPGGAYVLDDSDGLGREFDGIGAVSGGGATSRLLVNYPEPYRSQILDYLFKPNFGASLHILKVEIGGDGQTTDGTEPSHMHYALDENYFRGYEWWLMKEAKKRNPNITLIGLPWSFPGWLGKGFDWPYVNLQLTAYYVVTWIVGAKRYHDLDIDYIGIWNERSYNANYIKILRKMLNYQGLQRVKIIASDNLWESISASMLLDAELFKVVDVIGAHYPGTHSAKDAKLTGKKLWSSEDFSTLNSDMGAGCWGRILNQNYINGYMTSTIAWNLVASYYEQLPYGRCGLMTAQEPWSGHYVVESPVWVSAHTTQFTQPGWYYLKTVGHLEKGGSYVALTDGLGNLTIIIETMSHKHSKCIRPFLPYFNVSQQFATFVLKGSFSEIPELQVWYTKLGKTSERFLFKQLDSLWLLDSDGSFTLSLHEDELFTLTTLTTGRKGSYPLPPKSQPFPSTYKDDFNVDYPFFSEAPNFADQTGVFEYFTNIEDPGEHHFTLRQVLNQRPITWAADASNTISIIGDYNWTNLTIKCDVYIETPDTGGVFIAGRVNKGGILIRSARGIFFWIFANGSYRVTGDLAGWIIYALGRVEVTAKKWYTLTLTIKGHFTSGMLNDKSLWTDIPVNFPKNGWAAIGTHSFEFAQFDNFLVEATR
Method in brief: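 Mutant human GALC (G270D), stably expressed in a Twitcher mouse brain cell line lacking endogenous GALC, is measured in live-treated cells via 6-hexadecanoylamino-4-methylumbelliferyl-β-galactoside hydrolysis (0.1 mM final, pH 5.2) with fluorescent detection.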

activation, inactive:
CSc1nc2sc3c(c2c(=O)n1-c1ccc(C)c(Cl)c1)CCN(C(C)=O)C3 -11.3%
COc1cc(C(=O)N(Cc2ccc(C(C)C)cc2)C2CCS(=O)(=O)C2)cc(OC)c1OC (configuration not stated) -24.8%
CCOc1ccc(CCNC(=O)c2ccc3c(c2)c(C)c(C)n3C)cc1 -8.4%
CN1C(=O)CC(C)(c2ccccc2)C1=O (configuration not stated) -9.56%
COC(=O)c1ccc(NC(=O)CSc2nc(=O)n(Cc3ccco3)c3c2CCC3)cc1 -3.86%
Cc1ccccc1C(=O)N1CCC(c2nc3ccccc3s2)CC1 -14.2%
COc1cc(NC(=O)c2nnn(Cc3ccc(F)cc3)c2N)cc(OC)c1 -10.8%
Cc1[nH]n2c(=O)cc(-c3ccccc3Cl)nc2c1-c1ccccc1 -0.454%
CCn1c(SCc2ccccc2)nnc1-c1nonc1NC(C)=O -9.51%
CCC(=O)N1CCc2cc(Br)cc(S(=O)(=O)NCCc3ccc(OC)c(OC)c3)c21 -10.3%
O=C(NCCCc1nc2ccccc2n1Cc1ccccc1Cl)C1CCCCC1 3.81%
CC(=O)C1=C(OC(=O)C(C)C)c2ccccc2S(=O)(=O)N1Cc1ccccc1 -8.01%
CCN(C(=O)CSc1nc2ccccc2n1CC(=O)Nc1cccc(C#N)c1)c1ccccc1 -26.8%
Cc1ccc(CNC(=O)CC2Oc3ccccc3NC2=O)cc1 (configuration not stated) -11.8%
Cc1cc(NC(=O)CN2C(=O)C(C)(C)c3ccccc32)ccc1Br -12%
COc1ccc(C(CC(=O)Nc2ccc(F)c(Cl)c2)N2Cc3ccccc3C2=O)cc1OC (configuration not stated) -0.365%
CCOC(=O)C1CCCN(C(=O)Cn2ncc3c([nH]c4ccccc43)c2=O)C1 (configuration not stated) -12.5%
CCN(CC)CCNC(=O)c1ccc(NC(C)=O)cc1 -8.3%
CC(C)c1ccc(NS(=O)(=O)c2ccc3[nH]cc(C(=O)NC4CCCC4)c(=O)c3c2)cc1 -15%
Cc1ccc(N2CC3=C(C2=O)C(c2ccc(Br)cc2)NC(=O)N3C)cc1 (configuration not stated) -2.51%
O=C1Cc2cc(S(=O)(=O)N3CCN(c4ccccc4)CC3)ccc2N1 -1.22%
Cc1ccc(-c2nc(C(=O)NCc3ccc(Cl)cc3)c3n2CCCCC3)cc1 3.82%
Cc1ccccc1Nc1sc(C(=O)c2ccc3c(c2)OCO3)c(N)c1S(=O)(=O)c1ccccc1 -11%
Cc1ccccc1CNC(=O)c1ccc(NC(=O)c2nsc3ccccc23)cc1 -8.49%
O=C(Cn1c(=O)oc2cc(S(=O)(=O)N3CCCCCC3)ccc21)Nc1cccc(C(F)(F)F)c1 -13.9%
CCn1c(=O)cc(SCC(=O)Nc2ccc(C)c(F)c2)c2ccccc21 -8.66%
Cc1cc(C)cc(NS(=O)(=O)c2ccc3[nH]cc(C(=O)NCc4ccco4)c(=O)c3c2)c1 -10.2%
COc1cccc(NC(=O)CCc2nnc3n(CC(C)C)c(=O)c4ccccc4n23)c1 -1.33%
CC(=O)c1ccc(NC(=O)CN2C(=O)CCc3cc(S(=O)(=O)N4CCC(C)CC4)ccc32)cc1 4.33%
O=C(/C=C/c1ccccc1)Nc1nc(-c2cccs2)ns1 -10.7%
N#C/C(=C\c1ccccc1F)c1nc2ccccc2c(=O)[nH]1 -12.7%
CCC(O)c1nc2ccccc2n1CCOc1cc(C)cc(C)c1 (configuration not stated) 2.55%
O=C(Nc1ccccc1F)c1oc2ccccc2c1NC(=O)C12CC3CC(CC(C3)C1)C2 2.6%
COc1ccc(NC(=O)CSc2n[nH]c(-c3ccccc3)n2)cc1Cl -6.04%
O=C(Nc1ccc(Cl)c(C(F)(F)F)c1)c1cc2nc(-c3ccc4c(c3)OCO4)cc(C(F)(F)F)n2n1 -26.6%
CCCn1ccc2c(OCC(=O)Nc3ccc(C(F)(F)F)cc3)cccc2c1=O -8.34%
CC1(CN2CCC(n3c(=O)[nH]c4ccccc43)CC2)OCc2ccccc2-n2cccc21 (configuration not stated) -45.5%
COc1ccc(OC)c(-n2cnc3cc(C(=O)NCCc4ccccc4)ccc32)c1 -16.2%
Cc1ccc(CN(C(=O)c2ccc([N+](=O)[O-])cc2)c2ccccn2)cc1 -9.22%
Cc1cc(Nc2cccc(C(F)(F)F)c2)nc2ccc(NC(=O)c3cncc(Br)c3)cc12 -16.7%
CCOc1ccccc1N(CC)C(=O)c1cc2c(=O)n(CC)c3ccccc3c2s1 -22.4%
CCOC(=O)c1noc2nc(C)n(CC(=O)Nc3ccc(Br)cc3C)c(=O)c12 -12.5%
CC1=C(C(=O)Nc2ccc(C)cc2C)C(c2ccc[nH]2)n2ncnc2N1 (configuration not stated) -22.6%
CSc1nnc2c(n1)OC(c1cccc(O)c1Cl)Nc1ccccc1-2 (configuration not stated) -22.3%
CC(C(=O)NCc1ccc(Cl)cc1)n1ccc2cc(S(=O)(=O)N3CCCC3)ccc21 (configuration not stated) -14.8%
N#Cc1cc2c(=O)n3ccccc3nc2n(-c2nnc(SCc3ccccc3F)s2)c1=O 3.81%
Cc1ccc(OCC(=O)Nc2ccccc2C(=O)OCc2cc(=O)n3c(C)csc3n2)cc1 -6.04%
Cc1ccc(-c2nnc3ccccc3c2C(=O)Nc2cccc(C(F)(F)F)c2)cc1 15.2%
CC(C)OC(=O)c1c(NC(=O)c2cc3nc(-c4ccccc4)cc(C(F)(F)F)n3n2)sc2c1CCCC2 -8.45%
CCc1ccc(CNC(=O)c2cnc3sc(N(CC)CC)nn3c2=O)cc1 -2.63%
O=C(Cn1ncc2c3ccccc3n(Cc3ccc(Cl)cc3)c2c1=O)NC1CCCCCC1 -11.3%
COc1ccc(CCNC(=O)CN2C(=O)COc3ccc(S(=O)(=O)N4CCCCCC4)cc32)cc1OC -15.1%
COCCCNC(=O)Cn1c(=O)n(-c2ccc(Cl)cc2)c(=O)c2c3c(sc21)CCCCC3 -9.17%
CCOC(=O)C1CCCN(S(=O)(=O)c2ccc3c(c2)N(C)C(=O)CC(=O)N3C)C1 (configuration not stated) -11.7%
CCCCC(CC)Cn1c(Oc2ccccc2)nc2c1c(=O)n(C)c(=O)n2C (configuration not stated) 1.97%
COCCCNc1ncnc2c1nnn2C 1.67%
CCn1c(SCC(=O)Nc2ccc(C)c(C)c2)nnc1-c1nonc1NC(C)=O -5.73%
CC(C)c1cnc2c(c1SCC(=O)Nc1cccc([N+](=O)[O-])c1)c(=O)n(C)c(=O)n2C -9.68%
Cc1ccc(Cl)cc1N1CCN(S(=O)(=O)c2ccc3c(c2)CC(=O)N3C)CC1 -19.5%
Cc1ccc(NC(=O)c2ccc(CN3CC(=O)N4CCCCC4C3=O)cc2)cc1C (configuration not stated) -39.2%
CCOc1ccc(-n2c(=O)c3sc4ccccc4c3n(Cc3ccc(F)cc3)c2=O)cc1 -7.85%
CCc1ccccc1NC(=O)C(=O)NCCc1sc(-c2cccc(C)c2)nc1C 11%
